Assay results from the supplement of paper PMC12355420.
Structures can show the parent of a compound that is named as a salt. This is one part of the list. Rule as the data show it: active = 0.5 or less and inactive = the rest. Repeats are few or missing, and single values can be far off.

Tests used:
Details in all cases: 50 µM; 24 h
[1] = system: HeLa VPS33A reporter cells; assay: relative cell viability (CellMask signal) vs DMSO (fraction of DMSO); higher = less cytotoxic;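 also: primary screen of an FDA-approved drug library in HeLa reporter cells in 96-well format, CellMask signal normalized to DMSO-treated wells set as 1, under 0.5 deemed highly cytotoxic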
[2] = system: HeLa VPS33A R498W KI + HA-SDC1-FLAG; assay: relative GAG core protein HA-SDC1 amount per cell number vs DMSO (fraction of DMSO); higher = more SDC1 (GAG core protein);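 also: HA-SDC1 level read out by In-Cell Western staining with an anti-HA antibody against the N-terminal tag, screening FDA-approved library drugs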
[3] = system: HeLa VPS33A KO + NLuc-VPS33A R498W; assay: relative mutant VPS33A R498W amount (NanoLuc luminescence) vs DMSO (fraction of DMSO); HeLa model of a glycosaminoglycan (GAG) storage disease; KI is knock-in and KO knock-out; SDC1 is syndecan 1; higher = higher mutant VPS33A level;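 also: screen of an FDA-approved drug library, NanoLuc luminescence read after lysing the treated cells, taken as a measure of mutant VPS33A protein stability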

Structure (SMILES)	relative cell viability [1]	relative GAG core protein HA-SDC1 amount per cell number [2]	relative mutant VPS33A R498W amount [3]
C[C@H]1O[C@H](O[C@H]2[C@H](O)[C@@H](O)[C@@H](O[C@@H]([C@H](O)[C@@H](O)C=O)[C@H](O)CO)O[C@@H]2CO)[C@H](O)[C@@H](O)[C@@H]1N[C@H]1C=C(CO)[C@@H](O)[C@H](O)[C@H]1O [Acarbose]	1.27	inactive: 1.48	1.07
CCCCC(C)(O)C/C=C/[C@H]1[C@H](O)CC(=O)[C@@H]1CCCCCCC(=O)OC (mixture of isomers) [Misoprostol]	0.974	inactive: 0.753	1.64
NC(=O)c1nc(F)cnc1O	1.3	inactive: 1.04	1.03
Cc1ccc(N(CC2=NCCN2)c2cccc(O)c2)cc1 [Phentolamine Mesylate]	1.13	inactive: 0.68	0.833
Cc1nc(-c2ccc(OCC(C)C)c(C#N)c2)sc1C(=O)O [Febuxostat]	1.12	inactive: 0.653	1.11
CN1CCCCC1CCN1c2ccccc2Sc2ccc([S+](C)[O-])cc21 (centres undefined) [Mesoridazine Besylate]	1.32	inactive: 0.748	0.647
CN(CCOc1ccc(CC2SC(=O)NC2=O)cc1)c1ccccn1 (centres undefined) [Rosiglitazone maleate]	0.851	inactive: 0.908	0.794
COc1ccc(C2CNC(=O)C2)cc1OC1CCCC1 (centres undefined) [Rolipram]	0.992	inactive: 1.19	1.11
CN1CCC[C@@H]1Cc1c[nH]c2ccc(CCS(=O)(=O)c3ccccc3)cc12 [Eletriptan HBr]	1.03	inactive: 0.918	0.972
Brc1c(NC2=NCCN2)ccc2nccnc12	0.945	inactive: 0.91	1.35
NC(=O)N1c2ccccc2CC(=O)c2ccccc21 [Oxcarbazepine]	1.08	inactive: 0.832	1.31
CC(=O)NO [Acetohydroxamic Acid]	1.13	inactive: 0.863	0.799
NC(=O)c1ncn([C@@H]2O[C@H](CO)[C@@H](O)[C@H]2O)c1O [Mizoribine]	0.934	inactive: 1.59	1.24
CC1(C)O[C@@H]2C[C@H]3[C@@H]4C[C@H](F)C5=CC(=O)C=C[C@]5(C)[C@H]4[C@@H](O)C[C@]3(C)[C@]2(C(=O)CO)O1 [Flunisolide]	1.2	inactive: 0.875	1.01
CCOC(=O)[C@H](CCc1ccccc1)N[C@@H](C)C(=O)N1[C@H](C(=O)O)C[C@H]2CCCC[C@@H]21 [Trandolapril]	1.01	inactive: 0.829	1.27
NCCC(=O)O [beta-Alanine]	0.996	inactive: 0.951	0.96
CC#C[C@]1(O)CC[C@H]2[C@@H]3CCC4=CC(=O)CCC4=C3[C@@H](c3ccc(N(C)C)cc3)C[C@@]21C [Mifepristone]	1.23	active: 0.178	0.857
N=C(N)NC(=N)NCCc1ccccc1 [Phenformin HCl]	1.36	inactive: 0.867	0.985
N=C(N)NCCC[C@H](N)C(=O)O [L-Arginine (hydrochloride)]	1.28	inactive: 0.897	1.04
CCOC(=O)[C@H](CCc1ccccc1)N[C@@H](C)C(=O)N1CCC[C@H]1C(=O)O [Enalapril Maleate]	1.01	inactive: 0.913	1.38

Structure (SMILES)	relative cell viability [1]	relative GAG core protein HA-SDC1 amount per cell number [2]	relative mutant VPS33A R498W amount [3]
CC(N)C12CC3CC(CC(C3)C1)C2 (centres undefined) [Rimantadine]	0.946	inactive: 0.776	0.917
C[n+]1cccc(C(=O)[O-])c1 [Trigonelline Hydrochloride]	0.998	inactive: 0.885	1.39
N=C(N)c1ccc(N=NNc2ccc(C(=N)N)cc2)cc1 [Diminazene Aceturate]	1.06	inactive: 0.55	0.66
C=C1CC[C@@H]2[C@](C)(CO)[C@H](O)CC[C@@]2(C)[C@H]1C/C=C1\C=COC1=O [Dehydroandrographolide]	0.953	inactive: 0.731	0.912
Cc1[nH]c(=O)c(C#N)cc1-c1ccncc1 [Milrinone]	1.24	inactive: 0.926	0.969
CC1(C)S[C@@H]2[C@H](NC(=O)[C@H](N)c3ccc(O)cc3)C(=O)N2[C@H]1C(=O)O [Amoxicillin trihydrate]	0.983	inactive: 0.808	1.24
C[C@]12CC[C@@H]3c4ccc(OS(=O)(=O)O)cc4CC[C@H]3[C@@H]1CCC2=O [Estropipate]	1.04	inactive: 0.828	1.14
CC(C)[N+]1(C)[C@@H]2CC[C@H]1C[C@@H](OC(=O)C(CO)c1ccccc1)C2 (some centres undefined) [Ipratropium Bromide]	0.997	inactive: 1.8	1.21
COC(=O)N(C)c1c(N)nc(-c2nn(Cc3ccccc3F)c3ncccc23)nc1N [Riociguat]	1.01	inactive: 1.21	0.943
COc1cc([C@@H]2c3cc4c(cc3[C@@H](O[C@@H]3O[C@@H]5CO[C@@H](C)O[C@H]5[C@H](O)[C@H]3O)[C@H]3COC(=O)[C@H]23)OCO4)cc(OC)c1O [Etoposide]	1.03	active: 0.355	5.2
CCCC(CCC)C(=O)O [Divalproex Sodium]	1.26	inactive: 1.04	1.2
CN1CCc2cc3c(cc2C(=O)Cc2ccc4c(c2C1)OCO4)OCO3 [Protopine]	0.963	active: 0.378	0.757
O=S(=O)(O)NC1CCCCC1 [Cyclamic acid]	1.02	inactive: 0.945	1.5
Clc1ccc2nsnc2c1NC1=NCCN1 [Tizanidine HCl]	1.26	inactive: 0.82	0.589
CC(=O)Oc1ccccc1C(=O)Nc1ncc([N+](=O)[O-])s1 [Nitazoxanide]	1.12	inactive: 1.06	0.973
NCCS(=O)(=O)O [Taurine]	1.1	inactive: 0.827	0.778
Nc1nc(N)c2nc(-c3ccccc3)c(N)nc2n1 [Triamterene]	1.01	inactive: 0.955	1.48
COCCCOc1cc(C[C@@H](C[C@H](N)[C@@H](O)C[C@H](C(=O)NCC(C)(C)C(N)=O)C(C)C)C(C)C)ccc1OC [Aliskiren Hemifumarate]	1.03	inactive: 1.16	0.94
CC(C)[C@H]1CC[C@H](C(=O)N[C@H](Cc2ccccc2)C(=O)O)CC1 [Nateglinide]	1.08	inactive: 0.715	1.38
CCCNC(C)C(=O)Nc1c(C)csc1C(=O)OC (centres undefined) [Articaine HCl]	1.11	inactive: 0.778	1.25

Structure (SMILES)	relative cell viability [1]	relative GAG core protein HA-SDC1 amount per cell number [2]	relative mutant VPS33A R498W amount [3]
COc1ccc(C(=O)CC(=O)c2ccc(C(C)(C)C)cc2)cc1 [Avobenzone]	1.03	inactive: 0.669	1.04
CCS(=O)(=O)CCn1c([N+](=O)[O-])cnc1C [Tinidazole]	0.982	inactive: 0.842	1.19
C#C[C@]1(O)CC[C@H]2[C@@H]3CCc4cc(O)ccc4[C@H]3CC[C@@]21C [Ethinyl Estradiol]	0.922	active: 0.344	0.559
Clc1ccc(COC(Cn2ccnc2)c2ccc(Cl)cc2Cl)c(Cl)c1 (centres undefined) [Miconazole]	0.962	active: 0.376	0.00333
NC(=O)NCCC[C@H](N)C(=O)O	1.17	inactive: 1.11	1.15
O=C(C[S+]([O-])Cc1ccco1)NC/C=C\COc1cc(CN2CCCCC2)ccn1 (centres undefined) [Lafutidine]	0.978	inactive: 1.06	1.61
COC(=O)C1=CO[C@@H](O[C@@H]2O[C@H](CO)[C@@H](O)[C@H](O)[C@H]2O)[C@@H]2C(CO)=CC[C@H]12 [Geniposide]	1	inactive: 0.755	0.999
COc1cc(O)c2c(c1)oc(=O)c1c3cc(O)c(O)cc3oc21 [Wedelolactone]	0.723	active: 0.183	1.38
O=C(O)CCc1nc(-c2ccccc2)c(-c2ccccc2)o1 [Oxaprozin]	0.857	inactive: 0.806	1.18
CC[C@H](C)[C@@H]1NC(=O)[C@H](Cc2ccc(O)cc2)NC(=O)[C@@H](N)CSSC[C@@H](C(=O)N2CCC[C@H]2C(=O)N[C@@H](CC(C)C)C(=O)NCC(N)=O)NC(=O)[C@H](CC(N)=O)NC(=O)[C@H](CCC(N)=O)NC1=O [Oxytocin]	0.974	inactive: 0.826	1.29
CCN(C(=O)c1c(O)c2c(Cl)cccc2n(C)c1=O)c1ccccc1	1.14	inactive: 1.19	0.931
Cc1cccc(Nc2ccccc2C(=O)O)c1C [Mefenamic Acid]	1.16	inactive: 0.888	1.08
COCC(=O)Nc1c(I)c(C(=O)NCC(O)CO)c(I)c(C(=O)N(C)CC(O)CO)c1I (centres undefined) [Iopromide]	1.03	inactive: 0.907	1.72
CCc1cc(/C(C)=N/OCc2ccc(C3CCCCC3)c(C(F)(F)F)c2)ccc1CN1CC(C(=O)O)C1 [BAF312 (Siponimod)]	0.977	inactive: 0.739	1.54
NC(=O)CC[C@H](N)C(=O)O [L-Glutamine]	1.11	inactive: 1.54	0.725
CC(C)c1cc(-c2n[nH]c(=O)n2-c2ccc3c(ccn3C)c2)c(O)cc1O [Ganetespib (STA-9090)]	0.955	inactive: 0.586	0.278
CCCCC[C@H](O)/C=C/[C@H]1[C@H](O)CC(=O)[C@@H]1C/C=C\CCCC(=O)O [Prostaglandin E2]	1.21	inactive: 0.653	1.77
CCN(CC)CC(=O)Nc1c(C)cccc1C [Lidocaine]	1.06	inactive: 1.3	1.11
